The list shows a part of the results. The list includes weakly bound sequences.

Our source for the binding signal (normalized occupancy) values is article PMC4242493.

For the assay, the target named is MaxL homodimer (UniProt P61244). Kind of assay: universal protein-binding microarray (PBM). To be noted: PBS-based mixture, 10 nM His-tagged protein dimer, 2% milk, 200 ng/uL BSA, 50 ng/uL salmon testes DNA, 0.02% TX-100; detection with Alexa 488 anti-His …; high values mean tight binding; most listed sequences are background and not binding sites; double strand, one strand shown.
Sequence of UniProt P61244 (P61244 whole entry): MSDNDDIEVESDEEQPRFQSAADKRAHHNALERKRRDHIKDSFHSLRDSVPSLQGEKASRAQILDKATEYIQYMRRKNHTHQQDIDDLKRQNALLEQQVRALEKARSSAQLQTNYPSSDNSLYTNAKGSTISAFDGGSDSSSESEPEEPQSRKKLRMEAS
In the case of ACACATTG, the binding signal (normalized occupancy) turned out to be 0.102.

Consider AGATTACT, for which the binding signal (normalized occupancy) came out at 0.0727.

In the case of AGGTGGCC, the binding signal (normalized occupancy) amounted to 0.0765.

In the case of CCAGGATC, the binding signal (normalized occupancy) came out at 0.0721.

Take AGGCTCCG: the binding signal (normalized occupancy) was 0.0686.

In the case of ATTCGCAA, the binding signal (normalized occupancy) came to 0.0766.

For AACTGGCG, the binding signal (normalized occupancy) was 0.0672.

On to CTCGGATC, for which the binding signal (normalized occupancy) came to 0.0718.

On to TAGTCCCA, for which the binding signal (normalized occupancy) is 0.0701.

As for ACTCACCT, the binding signal (normalized occupancy) came to 0.0804.

For the sequence AGTCCAGG, the binding signal (normalized occupancy) was determined as 0.0704.

ATGATCAA: the binding signal (normalized occupancy) came out at 0.0816.

Turning to ATCTACTA, the binding signal (normalized occupancy) came to 0.0809.

Take TCCCCTCA: the binding signal (normalized occupancy) is 0.0785.

With ACCGTACT, the binding signal (normalized occupancy) worked out at 0.0741.

ATCGCTAA: the binding signal (normalized occupancy) amounted to 0.0736.

With TAGTTATA, the binding signal (normalized occupancy) amounted to 0.0872.

Take ATGTTTAG: the binding signal (normalized occupancy) came out at 0.0823.

Consider AAGCGAGA, for which the binding signal (normalized occupancy) came out at 0.0699.

With AAATGTGC, the binding signal (normalized occupancy) stood at 0.0962.

Take CCAGGCGG: the binding signal (normalized occupancy) was found to be 0.0792.

ACTGTCTG: the binding signal (normalized occupancy) was found to be 0.0718.

Regarding ACTAACCC, the binding signal (normalized occupancy) stood at 0.078.

In the case of CCAGTCAC, the binding signal (normalized occupancy) is 0.081.

With AAGGGCCT, the binding signal (normalized occupancy) was found to be 0.0719.

On to CTGTTACA, for which the binding signal (normalized occupancy) was 0.0803.

With AATAGCGG, the binding signal (normalized occupancy) was determined as 0.0744.

With GATGACTA, the binding signal (normalized occupancy) came to 0.0757.

In the case of ACAGGGCA, the binding signal (normalized occupancy) was determined as 0.0767.

On to AATGACGC, for which the binding signal (normalized occupancy) was 0.078.

Regarding CGTGTAGA, the binding signal (normalized occupancy) stood at 0.0822.

For ACAGGACA, the binding signal (normalized occupancy) stood at 0.0739.

Take AAACAAAT: the binding signal (normalized occupancy) was 0.0815.

For the sequence AAATTTGG, the binding signal (normalized occupancy) came to 0.0716.

Consider CAAAGGTA, for which the binding signal (normalized occupancy) came out at 0.0754.

For AAGCCCAG, the binding signal (normalized occupancy) was 0.0662.

As to GCGGGTTA, the binding signal (normalized occupancy) is 0.0766.

GATTATCC: the binding signal (normalized occupancy) is 0.0804.

As for TGGTCGAA, the binding signal (normalized occupancy) was 0.0778.

As for GCCGAATA, the binding signal (normalized occupancy) stood at 0.0712.

With GATCGTCA, the binding signal (normalized occupancy) came out at 0.0729.

With AGGCTATA, the binding signal (normalized occupancy) was determined as 0.075.

With ATGCTCGC, the binding signal (normalized occupancy) is 0.0825.

On to AGTTAGCC, for which the binding signal (normalized occupancy) amounted to 0.0667.

Regarding ACGTAGCA, the binding signal (normalized occupancy) is 0.0813.

Consider TCATACGA, for which the binding signal (normalized occupancy) was found to be 0.0777.

As to CATGGTTA, the binding signal (normalized occupancy) stood at 0.0903.

In the case of ACTGCTGC, the binding signal (normalized occupancy) was determined as 0.0746.

Consider TTGCGCAA, for which the binding signal (normalized occupancy) turned out to be 0.0725.

With AGTAAGAC, the binding signal (normalized occupancy) amounted to 0.0757.

With ACTTATCC, the binding signal (normalized occupancy) stood at 0.0734.

For the sequence GAGTCAGC, the binding signal (normalized occupancy) worked out at 0.0763.

Take CCCTGGAG: the binding signal (normalized occupancy) was determined as 0.0719.

With ACCACGGT, the binding signal (normalized occupancy) is 0.0803.

In the case of CGCCGCAC, the binding signal (normalized occupancy) amounted to 0.08.

ATGGTCTC: the binding signal (normalized occupancy) was 0.0821.

With CCGAACAG, the binding signal (normalized occupancy) was 0.0708.

As to AAGGCCAG, the binding signal (normalized occupancy) turned out to be 0.0689.

For the sequence CCGCTTTA, the binding signal (normalized occupancy) turned out to be 0.0715.

For TGTTGGAA, the binding signal (normalized occupancy) is 0.0753.

CCTTGTCG: the binding signal (normalized occupancy) is 0.072.

For AATCAAGC, the binding signal (normalized occupancy) turned out to be 0.0756.

Turning to GTCGGTAA, the binding signal (normalized occupancy) turned out to be 0.0762.

On to CGGGCCCG, for which the binding signal (normalized occupancy) is 0.0669.

With CGATAAGC, the binding signal (normalized occupancy) worked out at 0.0729.

As for AGAAAACT, the binding signal (normalized occupancy) came to 0.0714.

For the sequence GCCCAGGC, the binding signal (normalized occupancy) worked out at 0.0722.

Regarding CACGAATG, the binding signal (normalized occupancy) is 0.0777.

Regarding GGGTTTCA, the binding signal (normalized occupancy) was determined as 0.0775.

For the sequence AGATCGAC, the binding signal (normalized occupancy) was 0.0718.

Consider GAAGGGCA, for which the binding signal (normalized occupancy) is 0.0743.

Take GCTACGAA: the binding signal (normalized occupancy) turned out to be 0.0732.

For the sequence ATTCAACG, the binding signal (normalized occupancy) turned out to be 0.0823.

On to GCACGAGC, for which the binding signal (normalized occupancy) amounted to 0.085.

As for AAGCTATA, the binding signal (normalized occupancy) was 0.0711.

Consider TAATAGGA, for which the binding signal (normalized occupancy) was 0.0767.

AACTTGCG: the binding signal (normalized occupancy) is 0.0656.

In the case of TACAACAA, the binding signal (normalized occupancy) amounted to 0.0837.

In the case of TGATCGAA, the binding signal (normalized occupancy) is 0.0768.

For the sequence GGGGTTTA, the binding signal (normalized occupancy) stood at 0.0804.

AGGGCTCA: the binding signal (normalized occupancy) amounted to 0.0703.

On to CCTTCAGC, for which the binding signal (normalized occupancy) was 0.0703.

As for AGAGTGGC, the binding signal (normalized occupancy) worked out at 0.0745.

For the sequence AAGAAGCT, the binding signal (normalized occupancy) is 0.0698.

For GCCCTTCC, the binding signal (normalized occupancy) worked out at 0.0737.

As for CACGCCAA, the binding signal (normalized occupancy) is 0.0823.

As for AAAGATTT, the binding signal (normalized occupancy) stood at 0.0708.

For the sequence AGCAGGAA, the binding signal (normalized occupancy) is 0.0771.

For ACGGGTTC, the binding signal (normalized occupancy) came to 0.0763.

With CAATAGCG, the binding signal (normalized occupancy) stood at 0.0758.

For ACTGTCAA, the binding signal (normalized occupancy) was 0.0789.

Take ATAGCTCG: the binding signal (normalized occupancy) is 0.0703.

ATCAATTC: the binding signal (normalized occupancy) stood at 0.0749.

Regarding AGAGAGCA, the binding signal (normalized occupancy) was 0.0733.

With GATGGCCC, the binding signal (normalized occupancy) turned out to be 0.0719.

With AAAAAGCA, the binding signal (normalized occupancy) is 0.078.

Take AAGCGCAC: the binding signal (normalized occupancy) worked out at 0.0757.

Regarding AAACTGGA, the binding signal (normalized occupancy) stood at 0.0722.

Consider CTAAAAAG, for which the binding signal (normalized occupancy) was 0.0655.

On to TCATGTAA, for which the binding signal (normalized occupancy) came to 0.0936.

With GCTCGTAA, the binding signal (normalized occupancy) was found to be 0.0766.

As for AGAATGAA, the binding signal (normalized occupancy) was found to be 0.0781.

Take AGAAATAC: the binding signal (normalized occupancy) came out at 0.0735.

Consider GAGGGTGA, for which the binding signal (normalized occupancy) came to 0.0727.

Regarding GAGGGCGA, the binding signal (normalized occupancy) amounted to 0.0741.

On to TCTATGCA, for which the binding signal (normalized occupancy) was determined as 0.0808.

Regarding ATGATGGA, the binding signal (normalized occupancy) was found to be 0.0861.

ACGTCTGA: the binding signal (normalized occupancy) was found to be 0.0724.

As to AGCAGAAT, the binding signal (normalized occupancy) stood at 0.0719.

Regarding TCCTAGGA, the binding signal (normalized occupancy) was determined as 0.0742.

As for AGGGCTTC, the binding signal (normalized occupancy) is 0.0709.

As to ACAATCCG, the binding signal (normalized occupancy) is 0.0747.

Regarding CTGGATGA, the binding signal (normalized occupancy) amounted to 0.0778.

Regarding CTGCCTGC, the binding signal (normalized occupancy) worked out at 0.0727.

With ATAAGTGC, the binding signal (normalized occupancy) stood at 0.0785.

For CGGCGTCA, the binding signal (normalized occupancy) came out at 0.0685.

With CTGCGTAC, the binding signal (normalized occupancy) amounted to 0.0715.

For GACACCCA, the binding signal (normalized occupancy) worked out at 0.0749.

Consider CGTCATAA, for which the binding signal (normalized occupancy) is 0.0764.

With CACTCCAC, the binding signal (normalized occupancy) is 0.0873.

For the sequence CCGTCTAG, the binding signal (normalized occupancy) turned out to be 0.0677.

With CCGTACAA, the binding signal (normalized occupancy) turned out to be 0.0762.

For AAGTCACT, the binding signal (normalized occupancy) was found to be 0.074.

Consider CTTAGGGA, for which the binding signal (normalized occupancy) amounted to 0.0706.

For ACACAACG, the binding signal (normalized occupancy) was 0.0831.

As to GAGCTAGA, the binding signal (normalized occupancy) was 0.0757.

With CAATCCAA, the binding signal (normalized occupancy) came out at 0.0699.

Turning to CCCATGGC, the binding signal (normalized occupancy) was 0.0849.

As to GACTATAC, the binding signal (normalized occupancy) came to 0.0845.

For CATGTGGG, the binding signal (normalized occupancy) is 0.144.

In the case of GACTAAAA, the binding signal (normalized occupancy) is 0.0672.

As to ATGGGCGG, the binding signal (normalized occupancy) was 0.0801.

Take GACGCCTA: the binding signal (normalized occupancy) worked out at 0.0708.

Regarding ATACGCAC, the binding signal (normalized occupancy) stood at 0.0799.

Consider ACTCTTCT, for which the binding signal (normalized occupancy) came to 0.0779.

For ATACAACA, the binding signal (normalized occupancy) is 0.0788.

Regarding GCTGGCCA, the binding signal (normalized occupancy) came out at 0.0708.

Consider GAACACCA, for which the binding signal (normalized occupancy) stood at 0.0748.

As to CGCCTCCA, the binding signal (normalized occupancy) came to 0.0754.

In the case of AGAGGTAT, the binding signal (normalized occupancy) worked out at 0.0785.

Regarding CAGGGCAG, the binding signal (normalized occupancy) came out at 0.0697.

For ATGTAGAC, the binding signal (normalized occupancy) was found to be 0.0794.

Consider CCATCTCC, for which the binding signal (normalized occupancy) worked out at 0.0767.

Consider CAATTGAA, for which the binding signal (normalized occupancy) is 0.0762.

Turning to GCGCATAA, the binding signal (normalized occupancy) stood at 0.0782.

For the sequence AACACATT, the binding signal (normalized occupancy) came out at 0.0903.

Consider AGGATATC, for which the binding signal (normalized occupancy) came to 0.0817.

On to ATCCGAAA, for which the binding signal (normalized occupancy) was 0.0737.

Regarding AACTGGAA, the binding signal (normalized occupancy) was determined as 0.0737.

On to AAGCTGGA, for which the binding signal (normalized occupancy) amounted to 0.0707.

In the case of AAGAGGTC, the binding signal (normalized occupancy) amounted to 0.0695.

With ACTGAGCG, the binding signal (normalized occupancy) came to 0.0729.

For the sequence ACCGCAGC, the binding signal (normalized occupancy) amounted to 0.0715.

On to AGTTGTAG, for which the binding signal (normalized occupancy) came to 0.0721.

Consider ACCCAGAT, for which the binding signal (normalized occupancy) is 0.075.

For GCCCCCCC, the binding signal (normalized occupancy) stood at 0.0757.

As to ACGAACCT, the binding signal (normalized occupancy) came out at 0.0687.

Turning to CGCTCCAA, the binding signal (normalized occupancy) is 0.0713.

As for CATCCAGG, the binding signal (normalized occupancy) is 0.0738.

Take CTAGCTCC: the binding signal (normalized occupancy) amounted to 0.0747.

Take AACACTAC: the binding signal (normalized occupancy) amounted to 0.0726.

With ACTAAGCT, the binding signal (normalized occupancy) was 0.0637.

Take GAACCGGC: the binding signal (normalized occupancy) was determined as 0.0681.

On to CTCCGTAC, for which the binding signal (normalized occupancy) stood at 0.072.

For CACGATTA, the binding signal (normalized occupancy) came to 0.0799.

ATAACCCG: the binding signal (normalized occupancy) stood at 0.0746.

GTGCTCCA: the binding signal (normalized occupancy) was found to be 0.0766.

Consider CTCCTTCC, for which the binding signal (normalized occupancy) turned out to be 0.081.

Turning to GCAGAGCC, the binding signal (normalized occupancy) worked out at 0.0683.

On to TGTTGAAA, for which the binding signal (normalized occupancy) was 0.0755.

For the sequence ACTAGCTC, the binding signal (normalized occupancy) was 0.0723.

For the sequence GATGGTCA, the binding signal (normalized occupancy) was 0.0763.
